Data on 19 molecules can be found in the supplement of paper PMC12632987.

The full ranking holds about 1,800 sequences; the median of “median log2 fold change of GCK-ALFA target abundance (FLAG IP / Myc IP barcode read proportion)” is about 0.14, and the lowest 2% start at about -0.84. The list shows a part of the results.

Sequences and labels used below:
T1: TRAF2, Q12933
T1 chain: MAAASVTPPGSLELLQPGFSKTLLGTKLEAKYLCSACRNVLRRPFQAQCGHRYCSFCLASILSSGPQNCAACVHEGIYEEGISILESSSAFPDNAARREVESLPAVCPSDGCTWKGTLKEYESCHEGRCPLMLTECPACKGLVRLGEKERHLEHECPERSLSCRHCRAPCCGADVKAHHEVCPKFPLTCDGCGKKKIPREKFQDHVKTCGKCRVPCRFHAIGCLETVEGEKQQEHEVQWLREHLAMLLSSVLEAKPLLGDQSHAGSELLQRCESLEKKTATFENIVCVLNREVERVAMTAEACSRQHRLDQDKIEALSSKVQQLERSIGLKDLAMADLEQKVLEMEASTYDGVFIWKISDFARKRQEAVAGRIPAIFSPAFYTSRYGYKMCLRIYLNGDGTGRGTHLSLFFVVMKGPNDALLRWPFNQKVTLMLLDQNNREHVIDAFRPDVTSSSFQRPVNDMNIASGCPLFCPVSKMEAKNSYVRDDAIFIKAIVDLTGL

B1: traf2_out_13_95_1068 (protein)
chain: SKETAKKINELADKAEEEVLALLDAAQAALADDPEAVAALEAAREAARTRGIRAAIHILREAQAAHPEHADEFAALIAELEAIRRELGRKVAEIIKEEKE
B2: traf2_out_6_166_2468 (protein)
chain: EEELLKRIREIVEELGKYEPEIVIEAFEILAKERSDERATIARQAATGVRQAQKAGLDVTTILSAFADGLLALGVPVETILELFEEALKIAEKLAKEKEK
B3: traf2_out_18_3_1943 (protein)
chain: KEEELKKISEEIDKIIDEVTARAREELDRLLAEHPELAAEAEALRADLDAGAGPFGILDELARLWERAGAADEAAAARAFLREKRKKLQELVDKYEELRK
B4: traf2_out_14_17_1293 (protein)
chain: KIIERLEEIAKRAKELAEKYPELALELGRLARLAESTLVLAEMYEEDPRYKPELLQGLRNLAREAKEVAEKAKPISEEAVKRLEEMAERAEEILEEVEEE
B5: traf2_out_5_192_2336 (protein)
chain: SAEEEARERRLRERAEEILREAEERAKKISERTGLDYATVLATLAFSRVVARAESAEEARLMLDYIVEMITARDPSWAPIAEGEKAAALRAIDAIEAAEP
B6: traf2_out_15_180_1317 (protein)
chain: MTEEELEKRIELANEVADKVQDKLDALLAAHPSLTPEEKAALRELARSITTLLFNGEEAEAEAALARAEARLSPEAAAVARELYEFAKKLVEEAKKKLAE
B7: traf2_out_12_187_959 (protein)
chain: SNEDELLEAAKAGVKQALKELEKYAPKDPRFKELLKKLKELEELMKKVPEIASDALVAASAILRAIRLFEAGLPQEEIDAAYEEAEKTLEEALAEAEKLL
B8: traf2_out_20_3_2221 (protein)
chain: DELKEEVRKELEAIEKLLEQAKPLLPAEDYARLKELLEKAKKALETDLTDALVYLSELRREALALAQRAAAAGNAELAALLEEMAERANRAAGLVLKMIE
B9: traf2_out_17_162_1506 (protein)
chain: SEIEELEKEIEEELEELEKELERLEEKMKDLENLSKEEITDLLVEASELRRRALELAELVEEHKELLGEERAEELRKRAEEIAERLQRIANKAYEELLKK
B10: traf2_out_13_95_1148 (protein)
chain: SAETAAKIMAVADEMVDKVIAILEELLAKAKEKGVDTAPIQEALDLAKNRSINEAIHKLKELAKKYPEMKEELEAAIEKIEEIRREAGRRVAEIIKEEKA
B11: traf2_out_13_95_1104 (protein)
chain: SAETAEKIMKIADEMLDKVEKILEELLKIAKEKGKLEEEIKEALHLARYQSINEAIHKLKELAKKYPEFKEELEAAIKEIEALKKEAGRKVAEILKEEKK
B12: traf2_out_13_95_1071 (protein)
chain: TRELAEKINEIADEAEARALALLAAAKAELADDPEAVAVLDEAARLAETHGIRAAIHLLREAKAARPEHAAAFDALIAELEAIRREAGRRVAALIKEAEE
B13: traf2_out_14_166_1284 (protein)
chain: MSPEEIERIRKIVDELEPLTEKAVEEAERILEENRERLSPEQLARLEELLEIARRNIGSSAINALLEMAEIFEEAGLEEAAERFRRLAEELEKKLSELNK
B14: traf2_out_11_155_684 (protein)
chain: EKKQEINNELVNKMSEIADRAKAEARAIADAAAAAHPEAKAALDATLAATAGHGISTFLGSMAATFEALGLDDEAARVRALLAQAQKEMNAAVKEAEAKL
B15: traf2_out_16_104_1377 (protein)
chain: DAARRAAFQAAIARLEEIAERANRLANEIYKLMETASEEEKEKLSDALVKVSELRREALAAAEAARAALAAGGDLAAVEAALAKLEKRLEELEKEVKELK
B16: traf2_out_20_3_2058 (protein)
chain: SELDEEIEKKTKELEKKLAELAKLLPPEEAAELAKAWAEVKKAAKEGLEEFLIAVSKLRRLLLELSEEARARGDEKTAKLLEEAAEIAQEIAHLIYKKIE
B17: traf2_out_6_156_2442 (protein)
chain: TLDAILAETKKKVEEEIKKLAESSEEEHIKWINRIAGTIYRALQQARAAGASLAELKAFAEEVNKVIEEEAKKYGLPESVRNLLLSSVNAVFDVALAAAA
B18: traf2_out_18_117_1782 (protein)
chain: SRREEIIKRLEEIAEETGRAASELGKLMEENWEKLTPEEKSEAMDVLADLSAVRREALLLIHEIETEDVPVEEAEKRLEELEKRARAALAAAAEVIARIK
B19: traf2_out_18_117_1787 (protein)
chain: MEREEIIERLKEIAEETGRAASELGKLVLEKWEELTPEEKSEAFDVLADLSEVRREAQLLIIEIEEKNLPIEEAKKRLEELEKRAEEALKRAEEKIKRIK

This assay concerns the target T1, TRAF2, Q12933. In words: median log2 fold change of GCK-ALFA target abundance (FLAG IP / Myc IP barcode read proportion) (log2 ratio); each designed protein is fused to an ALFA-tag nanobody in HEK293 cells to bring the named protein to FLAG-tagged glucokinase (GCK); Myc marks an untargeted standard; higher = target protein stabilised (more abundant). The conditions noted are these: target protein: 3xFLAG-MCP-GCK-ALFA reporter; HEK293 landing pad (RPLP). Summed up: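 Sequencing of reverse-transcribed, amplified circular RNA barcodes from anti-FLAG and anti-Myc immunoprecipitates provided the readout for an ALFA-nanobody-fused binder library recombined into HEK293 landing-pad cells. Those cells were induced with 2 μg mL^−1 doxycycline, transfected with a plasmid expressing a FLAG-tagged target and a Myc-tagged standard, and lysed after 48 h. Target abundance is the per-binder median log2 ratio of FLAG to Myc barcode read proportions. Only barcodes at a proportion of ≥10^−7 in both replicates and binders with ≥3 barcodes per replicate were kept, with a 10^−6 pseudocount added before the two replicates were pooled.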
For the molecule B1, the “median log2 fold change” value is -0.0253. To B2 belongs 0.166; to B3, 0.0947. With B4 the figure was 0.25. To B5 belongs -1.01; to B6, 0.323; to B7, 0.26.

Turning to B8, the “median log2 fold change” value was -0.049. To B9 belongs 0.119; to B10, 0.0625. Regarding B11, the “median log2 fold change” value was -0.841. To B12 belongs -0.273; to B13, 0.323; to B14, 0.25. On to B15, for which the “median log2 fold change” value was determined as 0.304. With B16 the figure was 0.144; with B17, -0.216; with B18, 0.121. To B19 belongs 0.101.
